Reference: the supplement of paper PMC8728848
The list shows a part of the results.

Legend:
Assay in all cases: glycan array binding signal (z-score within array); higher = stronger binding
Conditions in all cases: glycan notation: IUPAC condensed, linker removed
[1] = biological target: Neu5Ac(a2-3)Gal(b1-4)GlcNAc6S
Summary of the method: (§1)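 The binding signal is a Z-score computed within each array. Data were drawn from 3228 arrays in the Consortium for Functional Glycomics database, restricted to those with a known protein sequence. Scores were averaged over arrays of the same protein sequence at different concentrations or buffers, and over linkers, and negative values can be taken as non-binding.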

[2] = biological target: Neu5Ac(a2-3)Gal(b1-4)[Fuc(a1-3)]GlcNAc
Summary of the method: as §1

[3] = biological target: Neu5Ac(a2-3)Gal(b1-4)[Fuc(a1-3)]GlcNAc(b1-3)Gal
Summary of the method: as §1

[4] = biological target: Neu5Ac(a2-3)Gal(b1-4)[Fuc(a1-3)]GlcNAc(b1-3)Gal(b1-4)GlcNAc
Summary of the method: as §1

[5] = biological target: Neu5Ac(a2-3)Gal(b1-4)[Fuc(a1-3)]GlcNAc(b1-3)Gal(b1-4)[Fuc(a1-3)]GlcNAc(b1-3)Gal(b1-4)[Fuc(a1-3)]GlcNAc
Summary of the method: as §1

[6] = biological target: Neu5Ac(a2-3)Gal(b1-4)[Fuc(a1-3)]GlcNAc6S
Summary of the method: as §1

[7] = biological target: Neu5Ac(a2-3)Gal6S(b1-4)GlcNAc
Summary of the method: as §1

[8] = biological target: Neu5Ac(a2-3)Gal6S(b1-4)[Fuc(a1-3)]GlcNAc
Summary of the method: as §1

Neu5Ac(a2-3)GalNAc = biological target: Neu5Ac(a2-3)GalNAc
Summary of the method: as §1

[9] = biological target: Neu5Ac(a2-3)GalNAc(b1-4)GlcNAc
Summary of the method: as §1

[10] = biological target: Neu5Ac(a2-3)[GalNAc(b1-4)]Gal(b1-4)Glc
Summary of the method: as §1

[11] = biological target: Neu5Ac(a2-3)[GalNAc(b1-4)]Gal(b1-4)GlcNAc
Summary of the method: as §1

[12] = biological target: Neu5Ac(a2-3)[Neu5Ac(a2-6)]GalNAc
Summary of the method: as §1

Neu5Ac(a2-6)Gal = biological target: Neu5Ac(a2-6)Gal
Summary of the method: as §1

Neu5Ac(a2-6)Gal(b1-4)Glc = biological target: Neu5Ac(a2-6)Gal(b1-4)Glc
Summary of the method: as §1

[13] = biological target: Neu5Ac(a2-6)Gal(b1-4)GlcNAc
Summary of the method: as §1

[14] = biological target: Neu5Ac(a2-6)Gal(b1-4)GlcNAc(b1-3)Gal(b1-4)GlcNAc
Summary of the method: as §1

[15] = biological target: Neu5Ac(a2-6)Gal(b1-4)GlcNAc(b1-3)Gal(b1-4)[Fuc(a1-3)]GlcNAc(b1-3)Gal(b1-4)[Fuc(a1-3)]GlcNAc
Summary of the method: as §1

[16] = biological target: Neu5Ac(a2-6)Gal(b1-4)GlcNAc6S
Summary of the method: as §1

Neu5Ac(a2-6)GalNAc = biological target: Neu5Ac(a2-6)GalNAc
Summary of the method: as §1

[17] = biological target: Neu5Ac(a2-6)GalNAc(b1-4)GlcNAc
Summary of the method: as §1

Neu5Ac(a2-8)Neu5Ac = biological target: Neu5Ac(a2-8)Neu5Ac
Summary of the method: as §1

[18] = biological target: Neu5Ac(a2-8)Neu5Ac(a2-3)Gal(b1-4)Glc
Summary of the method: as §1

[19] = biological target: Neu5Ac(a2-8)Neu5Ac(a2-3)[GalNAc(b1-4)]Gal(b1-4)Glc
Summary of the method: as §1

[20] = biological target: Neu5Ac(a2-8)Neu5Ac(a2-8)Neu5Ac
Summary of the method: as §1

[21] = biological target: Neu5Ac(a2-8)Neu5Ac(a2-8)Neu5Ac(a2-3)Gal(b1-4)Glc
Summary of the method: as §1

[22] = biological target: Neu5Ac(a2-8)Neu5Ac(a2-8)Neu5Ac(a2-3)[GalNAc(b1-4)]Gal(b1-4)Glc
Summary of the method: as §1

[23] = biological target: Neu5Ac(a2-8)Neu5Ac(a2-8)Neu5Ac(a2-8)Neu5Ac(a2-3)[GalNAc(b1-4)]Gal(b1-4)Glc
Summary of the method: as §1

Neu5Ac(b1-6)GalNAc = biological target: Neu5Ac(b1-6)GalNAc
Summary of the method: as §1

[24] = biological target: Neu5Ac(b2-6)Gal(b1-4)GlcNAc
Summary of the method: as §1

[25] = biological target: Neu5Ac9Ac(a2-6)Gal(b1-4)GlcNAc
Summary of the method: as §1

[26] = biological target: Neu5Gc(a2-3)Gal(b1-3)GlcNAc
Summary of the method: as §1

[27] = biological target: Neu5Gc(a2-3)Gal(b1-3)[Fuc(a1-4)]GlcNAc
Summary of the method: as §1

Neu5Gc(a2-3)Gal(b1-4)Glc = biological target: Neu5Gc(a2-3)Gal(b1-4)Glc
Summary of the method: as §1

[28] = biological target: Neu5Gc(a2-3)Gal(b1-4)GlcNAc
Summary of the method: as §1

[29] = biological target: Neu5Gc(a2-3)Gal(b1-4)[Fuc(a1-3)]GlcNAc
Summary of the method: as §1

[30] = biological target: Neu5Gc(a2-6)Gal(b1-4)GlcNAc
Summary of the method: as §1

Neu5Gc(a2-6)GalNAc = biological target: Neu5Gc(a2-6)GalNAc
Summary of the method: as §1

B1: FaeGad (Escherichia coli) (protein)
chain: WMTGDFNGSVDIGGSITADDYRQKWEWEVGTGLNGFGSVLNDLTNGGTKLTITVTGNKPILLGRTKEAFATPVTSGVDGIPHIAFTDYEGASVELRNPDGETEKGLTYFVLPMKNAEGTKVGSVKVNASYAGALGRGGVTSADGELMSLFAEGSHAIFYGGLPTNVKNSELKGGSAAAARTELFGSLSKNDILGQIQRVNANITSLVNVPGSFNENMAYTDGSVVSVAYALGIANGQTIEATFNQAVTTSTQWSAPLNVAITYY
glycan array binding signal (z-score) [1]: -0.426
glycan array binding signal (z-score) [2]: -0.45
glycan array binding signal (z-score) [3]: -0.324
glycan array binding signal (z-score) [4]: -0.35
glycan array binding signal (z-score) [5]: -0.187
glycan array binding signal (z-score) [6]: -0.39
glycan array binding signal (z-score) [7]: 0.808
glycan array binding signal (z-score) [8]: -0.253
glycan array binding signal (z-score) (Neu5Ac(a2-3)GalNAc): -0.452
glycan array binding signal (z-score) [9]: -0.376
glycan array binding signal (z-score) [10]: -0.488
glycan array binding signal (z-score) [11]: -0.319
glycan array binding signal (z-score) [12]: -0.465
glycan array binding signal (z-score) (Neu5Ac(a2-6)Gal): -0.48
glycan array binding signal (z-score) (Neu5Ac(a2-6)Gal(b1-4)Glc): -0.414
glycan array binding signal (z-score) [13]: -0.474
glycan array binding signal (z-score) [14]: -0.289
glycan array binding signal (z-score) [15]: -0.414
glycan array binding signal (z-score) [16]: -0.41
glycan array binding signal (z-score) (Neu5Ac(a2-6)GalNAc): -0.088
glycan array binding signal (z-score) [17]: -0.362
glycan array binding signal (z-score) (Neu5Ac(a2-8)Neu5Ac): -0.344
glycan array binding signal (z-score) [18]: -0.319
glycan array binding signal (z-score) [19]: -0.388
glycan array binding signal (z-score) [20]: -0.377
glycan array binding signal (z-score) [21]: -0.341
glycan array binding signal (z-score) [22]: -0.403
glycan array binding signal (z-score) [23]: -0.335
glycan array binding signal (z-score) (Neu5Ac(b1-6)GalNAc): 0.051
glycan array binding signal (z-score) [24]: -0.459
glycan array binding signal (z-score) [25]: -0.506
glycan array binding signal (z-score) [26]: -0.449
glycan array binding signal (z-score) [27]: -0.179
glycan array binding signal (z-score) (Neu5Gc(a2-3)Gal(b1-4)Glc): -0.432
glycan array binding signal (z-score) [28]: -0.457
glycan array binding signal (z-score) [29]: -0.436
glycan array binding signal (z-score) [30]: -0.477
glycan array binding signal (z-score) (Neu5Gc(a2-6)GalNAc): 0.243
